Experimental data from the supplement of paper PMC10338343.
± gives the standard deviation. This is a selection; strong and weak results do not stand in their true shares.

Test system: MIWI (PIWIL1) piRISC loaded with L1MC piRNA (30 nt)
Assay: pre-steady-state target cleavage rate (min^-1); MIWI and MILI are mouse PIWI proteins and EfPiwi is from a freshwater sponge; tags in brackets are library labels; higher = faster piRNA-guided slicing of the target
Settings: guide: L1MC piRNA 5'p-UAACUAAAUACUAUGCAAGCUGUAGGUCCU
Method in brief: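 For Cleave-'n-Seq, a transcribed, DNA-blocked target RNA library […] met 1 nM active affinity-purified piRISC with one synthetic guide at 33 °C for 0–8 or 0–960 min in HEPES–potassium acetate buffer, with or without 500 nM GTSF1 partner protein. Uncleaved targets were sequenced and normalised to depth and weakly complementary targets, with three trials pooled and k3 capped at 0.0001 min^-1. A burst-and-steady-state fit supplied the pre-steady-state cleavage rate.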

[1] = auxiliary factor: 500 nM mouse GTSF1
[2] = auxiliary factor: none (no GTSF1)
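Further: 1 nM active piRISC with 0.1 nM target library at 33 °C single turnover.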

| Sequence | pre-steady-state target cleavage rate [1] | pre-steady-state target cleavage rate [2] |
| --- | --- | --- |
| UCCUGGAACUGCUUGCAUAGUAUUUAGAAA | 0.179 ± 0.025 | 0.00529 ± 0.0023 |
| UCCUGGUUGAGCUUGCAUAGUAUUUAGAAA | 0.135 ± 0.024 | 0.00555 ± 0.0033 |
| UCGACCUACACCUUCCAUAGUAUUUAGUUA | 0.0294 ± 0.0086 | 0.00291 ± 0.0015 |
| UCCUCCUAGAGCUUGCAUUGUAUUUAGUUA | 0.779 ± 0.026 | 0.0216 ± 0.0049 |
| UCCACGUACAGCUUGCAUAGUAUUAAGUUA | 0.391 ± 0.026 | 0.0198 ± 0.0035 |
| UCCACCAACAGCUUGCAUAGUAAUUAGUUA | 0.715 ± 0.032 | 0.024 ± 0.0052 |
| UCCUGCUACAGCUUGCAUAGUAUUUACUUA | 0.355 ± 0.037 | 0.0207 ± 0.0039 |
| UCCUGGAUCUGCUUGCAUAGUAUUUAGAAA | 0.117 ± 0.024 | 0.00445 ± 0.0025 |
| AGGACCUACAGCAUGCAUAGUAUUUAGUAA | 0.986 ± 0.075 | 0.0556 ± 0.014 |
| UCCUGGAUCAGCUAGCUUAGUAUUUAGUUA | 0.372 ± 0.033 | 0.00674 ± 0.003 |
| UCCUGGAUGUGCUUGCAUAGUAUUUACAAA | 0.0422 ± 0.012 | 0.0047 ± 0.0024 |
| UCCACCUACAGCUUGCCUAGUAUUUAGUUA | 0.899 ± 0.052 | 0.0293 ± 0.0058 |
| UGGACCUACAGCUUGCAUAGUAUAUACUUA | 0.104 ± 0.017 | 0.00955 ± 0.0025 |
| UGGACCUACUCCUUGCAUAGUAUUUAGAAA | 0.189 ± 0.032 | 0.00602 ± 0.002 |
| UCCACCUUCAGCUUGGAUAGUAUUUAGUUA | 1.15 ± 0.033 | 0.0456 ± 0.0083 |
| UCCUGGAUCAGCUUGCAAAGUAUUUAGAUA | 0.465 ± 0.036 | 0.0134 ± 0.0038 |
| UCCUGCUACAGCUUGCAUAGUAUUUAGCUA | 0.257 ± 0.07 | 0.00858 ± 0.0026 |
| UGGACCUUCAGCUUGCAUAGUAUUAAGUUA | 0.846 ± 0.045 | 0.0295 ± 0.0069 |
| UCCUGGUAGCAGCUUGCAUAGUAUUUAGUUA | 0.999 ± 0.046 | 0.0676 ± 0.014 |
| UCCUGGAACAGCUUGCAGAGUAUUUAGUUA | 0.779 ± 0.06 | 0.0327 ± 0.0097 |
| UCCUGCUUCAGCAUGCAUAGUAUUUAGUUA | 1.32 ± 0.078 | 0.0171 ± 0.0036 |
| UCCUCCUACACCUUGCAUAGUAUUUUGUUA | 0.425 ± 0.07 | 0.0173 ± 0.0025 |
| AGGAGGAACAGCUUGCAUAGUAUUUAGUUA | 1.41 ± 0.065 | 0.0955 ± 0.019 |
| UCCUGGAUGUGCUUGGCAUAGUAUUUAGUUA | 0.0854 ± 0.02 | 0.00911 ± 0.0033 |
| UCCACCAACAGCUUGCAUAGUAUUUAGAAA | 0.378 ± 0.045 | 0.00708 ± 0.0027 |
| AGGACCUAGAGCAUGCAUAGUAUUUAGUUA | 1.04 ± 0.07 | 0.0381 ± 0.0072 |
| AGGACCUACAGGUUGCAAAGUAUUUAGUUA | 1.21 ± 0.045 | 0.0226 ± 0.0041 |

| Sequence | pre-steady-state target cleavage rate [1] | pre-steady-state target cleavage rate [2] |
| --- | --- | --- |
| UCCUGGAUGAGGUUGCAUAGUAUUUAGUUA | 0.274 ± 0.022 | 0.00581 ± 0.0018 |
| UCCUGGAUGAGCUUGCAUAGUAUAAUGUUA | 0.282 ± 0.047 | 0.00928 ± 0.0031 |
| UCCUGGAUCAGCUUGCAUAGAAUUUAGUAA | 0.207 ± 0.033 | 0.0126 ± 0.0049 |
| UCCUCCUACAGCUUGCAUAGUAUUUACUAA | 0.266 ± 0.038 | 0.00476 ± 0.0027 |
| UGGACCUACAGCUUGCAUAGUAUUUGAGUUA | 0.658 ± 0.072 | 0.0394 ± 0.0088 |
| UCCUGGUACAGCUUGCAUUGUAUUUAGAUA | 0.0655 ± 0.017 | 0.00831 ± 0.0026 |
| UCGACCUACAGCUUGCAUAGUGUUUAGUUA | 1.05 ± 0.041 | 0.0665 ± 0.013 |
| UCCUGGUACAGCUUGCAUAGUAUUUAGUUG [g2:g24:cont:t1G] | 0.491 ± 0.024 | 0.0391 ± 0.0078 |
| UCCUGGAUGUCGUGCAUAGUAUUUAGUUA | 0.031 ± 0.0083 | 0.00348 ± 0.0032 |
| UCGACGAUCAGCUUGCAUAGUAUUUAGUUA | 1.6 ± 0.047 | 0.0826 ± 0.017 |
| UCCUGGAUCACCUUGCAUAGUUUUUAGUUA | 0.0425 ± 0.0089 | 0.00716 ± 0.0025 |
| UGGACCUACAGCUCUGCAUAGUAUUUAGUUA | 1.56 ± 0.11 | 0.0566 ± 0.014 |
| AGGACCUACAGCUUGCAUACUAUUAAGUUA | 0.222 ± 0.028 | 0.0148 ± 0.0028 |
| UCCUGCUACAGCUUGCAAGUAUUUAGUUA | 0.325 ± 0.036 | 0.00689 ± 0.0028 |
| UCCUGGAACAGCUUGCAUAGUAUGUUAGUUA | 0.439 ± 0.064 | 0.0194 ± 0.0059 |
| AGGACCUACAGGUUGCUUAGUAUUUAGUUA | 1.07 ± 0.043 | 0.0215 ± 0.0041 |
| UCCUGCUACAGCUUGCAUAGUAUUUAGAUA | 0.337 ± 0.04 | 0.0122 ± 0.003 |
| UCCUCCUACAGCUUGCAUAGUGAUUUAGUUA | 0.0757 ± 0.012 | 0.00444 ± 0.002 |
| AGGACCUACAGCUUGCAUACUAUUUUGUUA | 0.22 ± 0.021 | 0.0206 ± 0.0035 |
| UCCUGCAACACCUUGCAUAGUAUUUAGUUA | 0.611 ± 0.092 | 0.0148 ± 0.004 |
| UCCACCUACUGCUUGCAUAGUAUUUUGUUA | 0.457 ± 0.026 | 0.0261 ± 0.0036 |
| AGGUACCUACAGCUUGCAUAGUAUUUAGUUA | 1.35 ± 0.21 | 0.481 ± 0.15 |
| UCCUGGAUGAGCUUGCAUAGUAUAAAGUAA | 0.103 ± 0.022 | 0.00364 ± 0.0029 |
| UCCUGGAUCCGCUUGCAUAGUAUUUAGUUA | 0.927 ± 0.053 | 0.031 ± 0.0075 |
| UCCUCCUACAGCUGCAUAGUAUUUAGUUA | 1.03 ± 0.041 | 0.00391 ± 0.0025 |
| AGGACCUACAGCUUGCAUAGUAUUUAGAUA | 0.593 ± 0.054 | 0.0587 ± 0.013 |
| UCCACCUACACCUUGCAUAGUAUUAAGUUA | 0.544 ± 0.06 | 0.0179 ± 0.0039 |
